# Measured values published in PMC4336329 (PLoS ONE, 2015).
# Among all 310,000 compounds or so, about 14,000 (4.5%) showed an effect of 50% or more. The effect is printed as a negative number. Some of the results follow.
# Target: human ether-à-go-go-related gene (hERG) potassium channel (human, UniProt Q12809)
# Assay: primary screen, population patch clamp on CHO cells stably expressing hERG
# 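Further: peak tail current of the secondary pulse compared with the same well before compound.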
# Chain of human ether-à-go-go-related gene (hERG) potassium channel (Q12809 whole entry, looked up): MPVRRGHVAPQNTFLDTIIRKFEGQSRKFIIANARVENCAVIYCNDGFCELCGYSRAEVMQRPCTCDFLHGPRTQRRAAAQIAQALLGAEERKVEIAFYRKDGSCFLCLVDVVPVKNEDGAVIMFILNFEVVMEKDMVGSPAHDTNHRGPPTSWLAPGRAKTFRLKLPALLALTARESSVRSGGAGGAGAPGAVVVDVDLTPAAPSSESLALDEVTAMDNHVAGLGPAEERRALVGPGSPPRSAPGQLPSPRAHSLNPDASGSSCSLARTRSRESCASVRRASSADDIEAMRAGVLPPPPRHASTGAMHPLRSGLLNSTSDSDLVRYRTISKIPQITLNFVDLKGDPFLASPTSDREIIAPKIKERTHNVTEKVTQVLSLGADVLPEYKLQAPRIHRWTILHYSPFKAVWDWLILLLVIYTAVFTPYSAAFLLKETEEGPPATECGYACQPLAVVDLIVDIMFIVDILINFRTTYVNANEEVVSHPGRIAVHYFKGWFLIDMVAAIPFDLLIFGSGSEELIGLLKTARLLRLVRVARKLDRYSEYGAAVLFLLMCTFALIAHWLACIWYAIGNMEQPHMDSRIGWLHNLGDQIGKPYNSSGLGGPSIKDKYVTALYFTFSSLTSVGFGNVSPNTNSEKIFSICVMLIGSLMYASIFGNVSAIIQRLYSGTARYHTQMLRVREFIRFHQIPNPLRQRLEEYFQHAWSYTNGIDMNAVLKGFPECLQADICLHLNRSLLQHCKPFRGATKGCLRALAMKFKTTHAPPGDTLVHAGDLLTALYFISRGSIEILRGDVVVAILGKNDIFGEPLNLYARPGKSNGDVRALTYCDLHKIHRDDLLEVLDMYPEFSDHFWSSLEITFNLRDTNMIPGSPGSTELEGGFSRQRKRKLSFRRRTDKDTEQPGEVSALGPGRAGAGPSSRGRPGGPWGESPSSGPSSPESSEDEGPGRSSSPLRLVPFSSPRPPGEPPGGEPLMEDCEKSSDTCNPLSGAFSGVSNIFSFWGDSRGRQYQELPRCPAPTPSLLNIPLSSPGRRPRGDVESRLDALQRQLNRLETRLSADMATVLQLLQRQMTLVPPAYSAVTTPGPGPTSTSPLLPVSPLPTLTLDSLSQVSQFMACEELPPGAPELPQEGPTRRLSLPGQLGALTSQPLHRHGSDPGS
row,Compound,"hERG current change (%, negative = inhibition) at 10uM"
1,CC(=O)Nc1ccc(S(=O)(=O)NC(CC(=O)NCCc2ccccc2)C(C)C)cc1 (stereo not drawn),8.98%
2,CC1CCC(NC(=O)CCS(=O)(=O)c2ccc3c(c2)NC(=O)C(C)S3)CC1 (stereo not drawn),4.25%
3,O=C(CN(Cc1ccc(F)cc1)C(=O)CNS(=O)(=O)c1ccc(Cl)cc1)NCC1CCCO1 (stereo not drawn),-36.8%
4,COC(=O)c1c(C)[nH]c(C(=O)OCc2ccc(F)cc2)c1C,6.58%
5,COCCCNC(=O)Cn1cc(/C=C(\C#N)C(=O)NC2CCCC2)c2ccccc21,-6.65%
6,CCC1(N(C(C)=O)c2ccc(OC)cc2)C(=O)c2ccccc2C1=O,8.56%
7,CCn1c(COc2ccc(=O)n(-c3ccccc3)n2)nnc1SCC(=O)OC,9.02%
8,COCC(=O)Oc1c(S(=O)(=O)c2ccc(C)cc2)c(C)nn1-c1ccccc1,-0.197%
9,CCN1CCN(S(=O)(=O)c2cccc(S(=O)(=O)N3CCOCC3)c2)CC1,14%
10,O=C(OCCCOC(=O)c1ccc([N+](=O)[O-])o1)c1ccc([N+](=O)[O-])o1,11%
11,O=[N+]([O-])c1ccc(CN2CCCCCC2)cc1,-32.8%
12,CC(=O)N1CCC2(CC1)C(C#N)=C(N)Oc1c2sc2nc(C)cc(C)c12,-3.03%
13,Cc1nn(-c2ccc(F)cc2)c(Cl)c1/C=N/NC(=O)c1ccc(O)cc1,38.3%
14,O=C(NCc1nc2ccccc2[nH]1)C1=C[C@@H](c2ccc(C(F)(F)F)cc2)C[C@@H](OCCCCO)O1,-38.7%
15,CC1(C)OC(=O)C=C[C@]2(C)[C@H]3CC[C@@]4(C)[C@H](C(=O)O)OC(=O)[C@H]5O[C@]54[C@]3(C)C(=O)C[C@@H]12,17.9%
16,Cc1cc(C(=O)NC(=S)Nc2ccccc2N2CCCC2)ccc1[N+](=O)[O-],4.9%
17,Cc1csc(N/N=C/c2ccccn2)n1,20.2%
18,COC(C(=O)Nc1ccc(S(=O)(=O)N2CCCCC2)cc1)c1ccccc1 (stereo not drawn),-15.3%
19,CC(C)(C)c1ccc(S(=O)(=O)N2CCCCC2)cc1,-20%
20,COc1ccc(/C(C)=N/NC(=O)OC(C)(C)C)cc1[N+](=O)[O-],5.01%
21,CCOc1ccc(C(C)=O)cc1CSc1nnnn1-c1ccc(O)cc1,-32.6%

row,Compound,"hERG current change (%, negative = inhibition) at 10uM"
1,COc1ccc(OC)c(S(=O)(=O)N2CCCC(C(=O)NCc3ccco3)C2)c1 (stereo not drawn),-5.29%
2,Cn1cccc1/C=C1\SC(=S)N(NC(=O)c2ccccc2Cl)C1=O,1.91%
3,CC1CCN(Cc2ccc(NC(=O)CC3Oc4ccccc4NC3=O)cc2)CC1 (stereo not drawn),-11.5%
4,Cc1c(Nc2c3ccccc3nc3ccccc23)c(=O)n(-c2ccccc2)n1C,-71%
5,C/C(=N\NC(=O)c1ccccc1[N+](=O)[O-])c1c(O)cc(C)oc1=O,28.6%
6,CCOc1ccc(S(=O)(=O)c2c(C(=O)c3ccccc3)cnc3cc4c(cc23)OCCO4)cc1,1.93%
7,Cc1ccc(-n2c(SCC(=O)Nc3cccc(S(N)(=O)=O)c3)nc3ccccc32)cc1,-12.7%
8,COc1ccc(N2C(=O)c3ccccc3NC2c2ccc(OC)c(CSc3ccccn3)c2)cc1 (stereo not drawn),2.62%
9,Fc1ccc(-c2oncc2-c2nnnn2-c2ccccc2)cc1F,-15.4%
10,Cc1cc(C(=O)NCC(=O)OCC(=O)NCC2CCCO2)ccc1[N+](=O)[O-] (stereo not drawn),15.3%
11,C=CCNC(=O)/C(=C/c1cn(-c2ccccc2)nc1-c1cccc([N+](=O)[O-])c1)NC(=O)c1ccccc1,-3.58%
12,O=C1CSC(c2cccnc2)N1CC1CC1 (stereo not drawn),5.92%
13,Cn1c(N)c(C(=O)CSc2n[nH]c(-c3ccccc3)n2)c(=O)n(C)c1=O,1.13%
14,O=C(CSc1ncccn1)N1CCN(S(=O)(=O)c2ccccc2)CC1,-13.3%
15,CCC(C)NC(=O)CO/N=C/c1ccccc1OC(F)F (stereo not drawn),-5.7%
16,Cc1cccc(OCC(=O)Nc2ccc3c(c2)nc(CCN2CCN(C)CC2)n3C)c1,-37.1%
17,CC(=O)Nc1ccc(S(=O)(=O)NCCSCc2ccccc2Cl)cc1,2.92%
18,CCOC(=O)C1CCCN(C(=O)c2ccc3c(c2)NC(=O)C(N2CCOCC2)S3)C1 (stereo not drawn),19.7%
19,Cc1ccc(S(=O)(=O)N2CCC3(CC2)OCCO3)c(C)c1,11.8%
20,CN(C)/C=N/C1=C(C#N)C(c2ccc(Br)cc2)c2ccc3ccccc3c2O1 (stereo not drawn),31.5%
21,Cc1ccc(N2C(=O)CC(N3CCN(c4ccc(F)cc4)CC3)C2=O)c(C)c1 (stereo not drawn),-17.7%
